Experimental findings from article PMC9911399, “Two distinct binding modes provide the RNA-binding protein RbFox with extraordinary sequence specificity” are described below.

The chains are these.
B1: GAACAUU (DNA:RNA)
RNA: GGGAGACCGGAAUUCAGAUUGUCCGAACAUUUUAAAUCCCGUCGUAGCCACCA
DNA 1: CAATCTGAATTCCGGTCTCCC
DNA 2: TGGTGGCTACGACGGGATT
B2: UACCCGG (DNA:RNA)
RNA: B1 RNA with G25U, A27C, A29C, U30G, U31G
DNA 1: CAATCTGAATTCCGGTCTCCC
DNA 2: TGGTGGCTACGACGGGATT
B3: UUGGCAC (DNA:RNA)
RNA: GGGAGACCGGAAUUCAGAUUGUCCUUGGCACUUAAAUCCCGUCGUAGCCACCA
DNA 1: CAATCTGAATTCCGGTCTCCC
DNA 2: TGGTGGCTACGACGGGATT
B4: GUCACAU (DNA:RNA)
RNA: B3 RNA with U25G, G27C, G28A, C31U
DNA 1: CAATCTGAATTCCGGTCTCCC
DNA 2: TGGTGGCTACGACGGGATT
B5: AACAGGG (DNA:RNA)
RNA: B1 RNA with G25A, A27C, C28A, A29G, U30G, U31G
DNA 1: CAATCTGAATTCCGGTCTCCC
DNA 2: TGGTGGCTACGACGGGATT
B6: AAAUCAA (DNA:RNA)
RNA: B1 RNA with G25A, C28U, A29C, U30A, U31A
DNA 1: CAATCTGAATTCCGGTCTCCC
DNA 2: TGGTGGCTACGACGGGATT
B7: GGGGUCG (DNA:RNA)
RNA: B3 RNA with U25G, U26G, C29U, A30C, C31G
DNA 1: CAATCTGAATTCCGGTCTCCC
DNA 2: TGGTGGCTACGACGGGATT
B8: CCGAGGU (DNA:RNA)
RNA: B1 RNA with G25C, A26C, A27G, C28A, A29G, U30G
DNA 1: CAATCTGAATTCCGGTCTCCC
DNA 2: TGGTGGCTACGACGGGATT
B9: UUAUUCU (DNA:RNA)
RNA: B1 RNA with G25U, A26U, C28U, A29U, U30C
DNA 1: CAATCTGAATTCCGGTCTCCC
DNA 2: TGGTGGCTACGACGGGATT
B10: UCGUUUA (DNA:RNA)
RNA: B3 RNA with U26C, G28U, C29U, A30U, C31A
DNA 1: CAATCTGAATTCCGGTCTCCC
DNA 2: TGGTGGCTACGACGGGATT
B11: CAAGUUA (DNA:RNA)
RNA: B1 RNA with G25C, C28G, A29U, U31A
DNA 1: CAATCTGAATTCCGGTCTCCC
DNA 2: TGGTGGCTACGACGGGATT
B12: GUAAGCA (DNA:RNA)
RNA: B1 RNA with A26U, C28A, A29G, U30C, U31A
DNA 1: CAATCTGAATTCCGGTCTCCC
DNA 2: TGGTGGCTACGACGGGATT
B13: CAAUGAC (DNA:RNA)
RNA: B1 RNA with G25C, C28U, A29G, U30A, U31C
DNA 1: CAATCTGAATTCCGGTCTCCC
DNA 2: TGGTGGCTACGACGGGATT
B14: CUGAUUU (DNA:RNA)
RNA: B1 RNA with G25C, A26U, A27G, C28A, A29U
DNA 1: CAATCTGAATTCCGGTCTCCC
DNA 2: TGGTGGCTACGACGGGATT
B15: CUCGCAA (DNA:RNA)
RNA: B3 RNA with U25C, G27C, C31A
DNA 1: CAATCTGAATTCCGGTCTCCC
DNA 2: TGGTGGCTACGACGGGATT
B16: AAGCCAU (DNA:RNA)
RNA: B1 RNA with G25A, A27G, A29C, U30A
DNA 1: CAATCTGAATTCCGGTCTCCC
DNA 2: TGGTGGCTACGACGGGATT
B17: AGUAGCG (DNA:RNA)
RNA: GGGAGACCGGAAUUCAGAUUGUCCAGUAGCGUUAAAUCCCGUCGUAGCCACCA
DNA 1: CAATCTGAATTCCGGTCTCCC
DNA 2: TGGTGGCTACGACGGGATT
B18: AGCAUCA (DNA:RNA)
RNA: B17 RNA with U27C, G29U, G31A
DNA 1: CAATCTGAATTCCGGTCTCCC
DNA 2: TGGTGGCTACGACGGGATT
B19: UAAGUGG (DNA:RNA)
RNA: B1 RNA with G25U, C28G, A29U, U30G, U31G
DNA 1: CAATCTGAATTCCGGTCTCCC
DNA 2: TGGTGGCTACGACGGGATT
B20: AUCCGCC (DNA:RNA)
RNA: B17 RNA with G26U, U27C, A28C, G31C
DNA 1: CAATCTGAATTCCGGTCTCCC
DNA 2: TGGTGGCTACGACGGGATT
B21: UCGGCAG (DNA:RNA)
RNA: B3 RNA with U26C, C31G
DNA 1: CAATCTGAATTCCGGTCTCCC
DNA 2: TGGTGGCTACGACGGGATT
B22: UUUCCCG (DNA:RNA)
RNA: B17 RNA with A25U, G26U, A28C, G29C
DNA 1: CAATCTGAATTCCGGTCTCCC
DNA 2: TGGTGGCTACGACGGGATT
B23: GAGCGUU (DNA:RNA)
RNA: B1 RNA with A27G, A29G
DNA 1: CAATCTGAATTCCGGTCTCCC
DNA 2: TGGTGGCTACGACGGGATT
B24: CCUGGAA (DNA:RNA)
RNA: B17 RNA with A25C, G26C, A28G, C30A, G31A
DNA 1: CAATCTGAATTCCGGTCTCCC
DNA 2: TGGTGGCTACGACGGGATT
B25: GGACGCA (DNA:RNA)
RNA: B17 RNA with A25G, U27A, A28C, G31A
DNA 1: CAATCTGAATTCCGGTCTCCC
DNA 2: TGGTGGCTACGACGGGATT
B26: GUUAUAG (DNA:RNA)
RNA: B17 RNA with A25G, G26U, G29U, C30A
DNA 1: CAATCTGAATTCCGGTCTCCC
DNA 2: TGGTGGCTACGACGGGATT
B27: UUUGAUA (DNA:RNA)
RNA: B3 RNA with G27U, C29A, A30U, C31A
DNA 1: CAATCTGAATTCCGGTCTCCC
DNA 2: TGGTGGCTACGACGGGATT
B28: GCAUAUG (DNA:RNA)
RNA: B1 RNA with A26C, C28U, U31G
DNA 1: CAATCTGAATTCCGGTCTCCC
DNA 2: TGGTGGCTACGACGGGATT
B29: GCAAGCC (DNA:RNA)
RNA: B17 RNA with A25G, G26C, U27A, G31C
DNA 1: CAATCTGAATTCCGGTCTCCC
DNA 2: TGGTGGCTACGACGGGATT
B30: CUGAUGA (DNA:RNA)
RNA: B3 RNA with U25C, G28A, C29U, A30G, C31A
DNA 1: CAATCTGAATTCCGGTCTCCC
DNA 2: TGGTGGCTACGACGGGATT
B31: UUAUACC (DNA:RNA)
RNA: B3 RNA with G27A, G28U, C29A, A30C
DNA 1: CAATCTGAATTCCGGTCTCCC
DNA 2: TGGTGGCTACGACGGGATT

Where a chain is given by its changes, count along the chain named. The list shows a part of the results.

The target in this test is T1, RBFOX1 RRM (Homo sapiens, UniProt Q9NWB1 109-208).
T1 sequence: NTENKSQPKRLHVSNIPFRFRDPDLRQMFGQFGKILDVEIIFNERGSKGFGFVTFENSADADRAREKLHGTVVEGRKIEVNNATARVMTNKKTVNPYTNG
In words: EMSA; HiTS-Eq, 1 nM pool, 10 min; buffer printed only for the single-RNA assays: 10 mM Tris pH 7.5, 150 mM NaCl, 3.4 mM EDTA, 0.001% NP-40, 30 C. As to conditions: tags: His6 N-terminal (pET28a); label: 5' 32P. In a few lines: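 Relative association constants, normalised to the cognate motif, were derived by comparing read counts of each RNA species with those of the control reaction. The RNA sequenced was the free fraction, separated by 8% native PAGE after a 10 min equilibration in 50 µL of 1 nM 5′-radiolabelled RNA (7 randomized nucleotides) with increasing concentrations of purified wild-type or mutant RbFox RRM.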
On the technique in general: A gel shift assay detects complexes by their altered migration in electrophoresis.
For the molecule B1, the binding signal is 0.00246 KA relative to UGCAUGU.

On to B2, for which the binding signal was 0.00763 KA relative to UGCAUGU.

With B3, the binding signal was 0.0191 KA relative to UGCAUGU.

For the molecule B4, the binding signal is 0.00506 KA relative to UGCAUGU.

As for B5, the binding signal was 0.00646 KA relative to UGCAUGU.

As to B6, the binding signal is 0.000997 KA relative to UGCAUGU.

With B7, the binding signal was 0.0492 KA relative to UGCAUGU.

On to B8, for which the binding signal is 0.0153 KA relative to UGCAUGU.

With B9, the binding signal was 0.00479 KA relative to UGCAUGU.

Consider B10, for which the binding signal was 0.00996 KA relative to UGCAUGU.

As to B11, the binding signal was 0.00194 KA relative to UGCAUGU.

Consider B12, for which the binding signal is 0.0102 KA relative to UGCAUGU.

Take B13: the binding signal was 0.00581 KA relative to UGCAUGU.

Turning to B14, the binding signal was 0.012 KA relative to UGCAUGU.

In the case of B15, the binding signal was 0.00552 KA relative to UGCAUGU.

Consider B16, for which the binding signal is 0.00193 KA relative to UGCAUGU.

With B17, the binding signal is 0.0104 KA relative to UGCAUGU.

Consider B18, for which the binding signal was 0.0109 KA relative to UGCAUGU.

For the molecule B19, the binding signal was 0.00934 KA relative to UGCAUGU.

On to B20, for which the binding signal was 0.00344 KA relative to UGCAUGU.

For the molecule B21, the binding signal is 0.0195 KA relative to UGCAUGU.

On to B22, for which the binding signal is 0.00667 KA relative to UGCAUGU.

Regarding B23, the binding signal was 0.0169 KA relative to UGCAUGU.

Turning to B24, the binding signal is 0.016 KA relative to UGCAUGU.

Turning to B25, the binding signal was 0.0198 KA relative to UGCAUGU.

As to B26, the binding signal is 0.0111 KA relative to UGCAUGU.

For the molecule B27, the binding signal is 0.0145 KA relative to UGCAUGU.

In the case of B28, the binding signal was 0.00982 KA relative to UGCAUGU.

On to B29, for which the binding signal is 0.00998 KA relative to UGCAUGU.

On to B30, for which the binding signal was 0.0162 KA relative to UGCAUGU.

With B31, the binding signal was 0.00397 KA relative to UGCAUGU.
